From the RNAGym collection of RNA variant scans (doi:10.1073/pnas.2313332121)
Variants at the background level are over-represented here.

B1: TPR 5TU (parent)
chain: GGAUCUUCUCGAUCUAACAAAAAAGACAAAUCUGCCACAAAGCUUGAGAGCAUCUUCGGAUGCAGAGGCGGCAGCCUUCGGUGGCGCGAUAGCGCCAACGUUCUCAACUAUGACACGCAAAACGCGUGCUCCGUUGAAUGGAGUUUAUCAUG

Variants of: B1
Experiment: polymerase ribozyme fitness, log enrichment relative to wild type (log ratio); higher = more active; in vitro selection for triplet polymerase activity
Procedure, shortened: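 Streptavidin-bead capture of gel-excised extended constructs, followed by RT-PCR, closed a single triplicate in vitro selection round. That round began by annealing PCR-built, transcribed mutant libraries of each subunit of a heterodimeric triplet polymerase ribozyme with a biotinylated primer, the partner subunit and triplets, then incubating them frozen at −7 °C. After Illumina sequencing of inputs and outputs, genotypes needed ≥10 input reads and ≥1 read per output. Fitness is the base-2 logarithm of genotype enrichment over wild-type enrichment, using inverse-variance-weighted replicate averages.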

Polymerase ribozyme fitness (log ratio), -2.62:
A17U C129G

Polymerase ribozyme fitness (log ratio), -3.75:
A17U C87G
C18G A21U A29C A37U C57U C95U U127G U148G

Polymerase ribozyme fitness (log ratio), -2.67:
A17U A22U A52G G92C A115G

Polymerase ribozyme fitness (log ratio), -3.44:
C18G A41U A47C A49G G86A U104G

Polymerase ribozyme fitness (log ratio), -2.06:
C18A G58A G86U A119U

Polymerase ribozyme fitness (log ratio), -1.26:
A17G G59A G143C

Polymerase ribozyme fitness (log ratio), -4.17:
C18A C27A A40U C87U C118U

Polymerase ribozyme fitness (log ratio), 0.174:
A17G U145C

Polymerase ribozyme fitness (log ratio), -1.15:
C18G A52G C87U

Polymerase ribozyme fitness (log ratio), -3.01:
A17U C87U G94C

Polymerase ribozyme fitness (log ratio), -1.71:
C18A A20C U82C A122C

Polymerase ribozyme fitness (log ratio), ≤ -4.2:
A17U A47U G71A C75G C93A
C18G A37C A52U U61G U82A G92A
C18A A23G C57G C63G C85G A91U U139C
A17U C35A C76A U82G C96A C125A U145A
A17U C18G G50C C51U C57A G59U A66C G152U
C18G A52G U61A G67U G68A C85A G88U U109G G140C
C18G A23C G46C A47G G80C C85A
C18G A23U A39G U55G A73U A89G A97U
A17U U45A A47G G50A C51A A64U
A17G A26C C54U G58C C85A
A17U C27G G58C C96A C116U
A17U A24U U44A G58A G68A C87U C125U
C18A A19C G50U C75U A110U
C18G A24G C57U C93G G94C G117C
A17G U61A G71A G143A
A17U A30C G42C G65C U77G
C18G A20C A28C G42C G81U G94U
A17G A37G A49C U77G U148G
A17U U56A G133U U148C
A17U A22U U44A G83C C131U
A17U A22U A26G G34U C57U G59A C93U
A17U G58U G74C G86A
C18G A28G A60C C76U C85U A110C G112C A119U A138U U139C
C18G A24U A40U C87A A97C U139G U144C
A17U A21G A49G U53G C54U C85U
C18A A22C A23U A37C C72U G88A C125U U146G
C18A A20U G71C G92C G143U U144G
A17U C51U A52G C57U G84C G117C A137C A150G G152U
A17G A29U C87G C118A U148G
A17U G50A A73U G83C G124U
A17U G58C A91C C96G U148C
A17U A23G G42A A47C G81U G92U C99U C103A A110G U145A
A17U C27G U61C G133U A142C
C18G A29U C75G U78A C95G C105A C118U A142U
C18G A24G G50U U55A A106C C125A
C18A A20U G25U A29U U77G C85U A138G
A17U C87A
A17U A28U
A17G A23G G48C A91U U104A
A17G C54G G68A C93G A120U G140U
C18A A21C A29C A91G C99A C125U G143C A150C
A17G C27A C35G C75A G86C A142G
A17G A29U G42A C87U G100U A110C A115C A120G U134A
C18G A30U U44A C76U G84A C85G
A17U U53G C57G G88A C93G U134G U135G G140U
A17G U61G U90C C93G G152C
A17G U44A U55A A73U U77A G92A U101G C118U
A17G C38U G58U G68U A110U
C18A U31G C35A A64G C79A G92U C93U C105U U134C
A17U C85A C108U A142U
A17U A47U U56A U78C A91U
C18G A29G C57A C93U U104A U146G
C18G A28U A66U G94U C95A
A17U A22C C57A G81C U127G G143C G152U
C18A A23U A24C A37U G42C C76G C93G G112U A142C
A17U A30C C38U U53G G58U C99U C132U
A17G C32A A49C G83U A107G G143U
A17G C79A G80C U109C
A17G G48C G133A C149G
A17G U78G G84C C85U U90C G117U
A17U A29U G94C A120U U134G
A17G U31G C35A A37U
A17G G58C U61G G71U G86C U104G G143C
A17G U55A A106C C123A G124U G136C A138U
A17G G50C C51G G88U C96U C108G
A17G C32U C36A C96U A115C
A17U A29U C93A G141U
A17G C27U A49U G71U G83U C85G G140A U148A
A17U A47C C57U A89G G94A A97G C129A

Polymerase ribozyme fitness (log ratio), -0.796:
A17G C35U G83A

Polymerase ribozyme fitness (log ratio), -2.81:
C18A G86U C103U U145A

Polymerase ribozyme fitness (log ratio), -2.88:
A17G A22G U82C C99A
